In all, about 110,000 compounds were measured (“z-score”: median about -0.1, highest 2% from about 2 on). The list shows a part of the results. The source made the active and inactive calls.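 The calls were made as follows: active = z-score in the third read window above 3 or below -3; inactive = the rest.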

This experiment has as its target Metabotropic glutamate receptor 8 (Rattus norvegicus) (UniProt P70579). Kind of experiment: rat mGluR8 modulators via GIRK flux, primary screen, cell-based, thallium flux, HTS (AID 488969). To be noted: HEK293 rat mGluR8, GIRK (G protein-gated inwardly rectifying potassium channel) thallium flux, FluoZin2; at 10 µM; stronger effect = higher value; submaximal glutamate (EC20) added with thallium.
UniProt P70579, sequence (P70579 whole entry, looked up): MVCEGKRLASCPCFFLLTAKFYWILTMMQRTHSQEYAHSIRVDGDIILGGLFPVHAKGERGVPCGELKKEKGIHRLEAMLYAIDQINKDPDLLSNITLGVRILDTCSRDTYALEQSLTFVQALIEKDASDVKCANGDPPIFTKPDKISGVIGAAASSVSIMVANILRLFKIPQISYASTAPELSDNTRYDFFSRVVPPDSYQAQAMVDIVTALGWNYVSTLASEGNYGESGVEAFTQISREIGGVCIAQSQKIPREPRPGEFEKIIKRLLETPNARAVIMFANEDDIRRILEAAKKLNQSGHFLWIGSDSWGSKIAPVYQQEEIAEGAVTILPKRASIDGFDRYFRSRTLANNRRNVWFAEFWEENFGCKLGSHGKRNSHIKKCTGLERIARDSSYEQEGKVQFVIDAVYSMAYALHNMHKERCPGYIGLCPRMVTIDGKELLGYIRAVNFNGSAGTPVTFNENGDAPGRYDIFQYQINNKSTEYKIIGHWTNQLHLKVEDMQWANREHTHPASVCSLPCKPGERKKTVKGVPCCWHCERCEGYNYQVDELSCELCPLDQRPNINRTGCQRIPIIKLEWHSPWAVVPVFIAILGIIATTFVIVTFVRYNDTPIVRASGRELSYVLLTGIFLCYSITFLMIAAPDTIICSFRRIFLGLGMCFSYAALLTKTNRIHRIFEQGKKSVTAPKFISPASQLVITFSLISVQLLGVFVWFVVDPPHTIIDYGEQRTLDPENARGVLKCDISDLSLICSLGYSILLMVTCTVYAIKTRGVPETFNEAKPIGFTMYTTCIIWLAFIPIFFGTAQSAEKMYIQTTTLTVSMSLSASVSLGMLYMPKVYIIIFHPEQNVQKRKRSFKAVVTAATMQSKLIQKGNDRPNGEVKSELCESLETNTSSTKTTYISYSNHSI
In turn, `COc1cc(NC(=O)C2CCN(S(=O)(=O)c3ccc(Cl)cc3)CC2)ccc1-n1cnnn1` came in with a z-score of -0.131.

In the case of `COc1ccc(C)cc1S(=O)(=O)N(CC(=O)Nc1cccc([N+](=O)[O-])c1)c1ccccc1`, the z-score was -0.1.

In the case of `CCn1c(Cn2nnc(-c3ccccc3)n2)nnc1SCC(=O)Nc1ccc(C(C)=O)cc1`, the z-score was -0.345.

For `CC1CCCC(C)N1S(=O)(=O)c1ccc(NC(=O)c2ccccc2C(=O)N2CCOCC2)cc1` (stereo unspecified), the z-score stood at 0.292.

The compound `COc1ccccc1/C=N/Nc1nncc2ccccc12` gave a z-score of 0.0544.

As for `COc1ccc(N=C2SC(CC(=O)Nc3ccccc3)C(=O)N2CC2CCCO2)cc1` (stereo unspecified), the z-score is -0.432.

`CC(NC(=O)c1cccs1)C(c1cccs1)N1CCOCC1` (stereo unspecified) had a z-score of -0.101.

Regarding `Nc1nc(Nc2ccc(Cl)cc2Cl)nc(C(F)(F)F)n1`, the z-score was found to be 0.289.

`CCOc1ccc(-n2nc3c(-n4ncc(C#N)c4N)nnc(C)c3c2C)cc1`: the z-score is -0.0191.

Take `O=C(C[n+]1cccc(NC(=O)c2ccccc2)c1)c1ccccc1`: the z-score came out at 0.023.

In the case of `CCO/C=N/c1c(C#N)c2c(c(=S)n1C)COC(C)(C)C2`, the z-score is -0.708.

As to `COc1cc(/C=N\n2cnnc2)ccc1OCC(=O)Nc1ccc(C)cc1`, the z-score stood at 0.277.

The compound `Cc1oc2c(cc(NS(=O)(=O)c3cccs3)c3ccccc32)c1C(=O)OC(C)C` had a z-score of 0.372.

Take `Cc1ccc(-c2nnc(Oc3ccc(NC(=O)c4ccccc4)cc3)c3ccccc23)cc1`: the z-score was -0.122.

Take `O=C(Nc1cc(C(F)(F)F)ccc1N1CCOCC1)c1ccco1`: the z-score stood at 0.297.

In the case of `Cc1nn(C)c(C)c1CN(C)C(=O)c1nn2c(c1Br)NC(c1cccs1)CC2C(F)(F)F` (stereo unspecified), the z-score worked out at 2.24.

`Cc1cc(NC(=O)CCN2CCC(C(N)=O)CC2)ccc1Br`: the z-score is 0.255.

On to `Cc1ccc(OCC(=O)Nc2ccccc2Sc2ccc(Cl)cc2)c([N+](=O)[O-])n1`, for which the z-score was -0.552.

`CCOC(=O)C1=C(C)NC(SCC(=O)OC)=C(C#N)C1c1ccc(C(=O)OC)cc1` (stereo unspecified): the z-score stood at 0.0233.

In turn, `Cc1nc2ccc(S(=O)(=O)NCC(=O)N3CCOCC3)cc2s1` displayed a z-score of -0.0788.

On to `COc1cccc(-c2cc(C(=O)Nc3cccnc3)no2)c1`, for which the z-score was found to be 0.128.

On to `CCC1CCCCN1S(=O)(=O)c1ccc(C(=O)Nc2nnc(-c3ccccc3Cl)o2)cc1` (stereo unspecified), for which the z-score worked out at 1.12.

`O=C1CSC(c2cn(-c3ccccc3)nc2-c2cc3ccccc3oc2=O)N1Cc1cccnc1` (stereo unspecified) showed a z-score of 0.000712.

Regarding `CC(=O)c1cccc(S(=O)(=O)N(Cc2cc3cc4c(cc3[nH]c2=O)OCCO4)CC2CCCO2)c1` (stereo unspecified), the z-score was determined as 0.32.

For the compound `CCOC(=O)c1sc(NC(=O)/C=C/c2cnn(CC)c2C)c(C(=O)OCC)c1C`, the z-score was -0.442.

Take `O=C(c1ccccc1)c1cccn1CC(=O)N1CCN(C2CCCCC2)CC1`: the z-score came to 0.102.

As to `Cn1c(=O)cc(N2CCc3ccccc32)[nH]c1=O`, the z-score is -0.292.

`Cc1cccc(C)c1-n1c(C)cc(/C=N\Nc2ccc([N+](=O)[O-])cn2)c1C` gave a z-score of -0.113.

In the case of `CSCCC(NC(=O)OCc1ccccc1)C(=O)O` (stereo unspecified), the z-score worked out at 0.475.

As for `O=C(c1ccccc1)c1ccc(OC(=O)N2CCCC2)cc1`, the z-score was -0.322.

`Cc1ccc(CNC(=O)CN(C2CCCCC2)S(C)(=O)=O)cc1` had a z-score of -0.118.

Compound `O=c1c2cccnc2[nH]c(=S)n1CCCN1CCN(c2ccccc2F)CC1` returned a z-score of -0.417.

For the compound `O=C(Nc1cnn(C23CC4CC(CC(C4)C2)C3)c1)c1cnn2c(C(F)(F)F)cc(-c3ccco3)nc12`, the z-score was 0.0082.

`Cc1c(C(=O)N2CCCCCC2)oc2ccccc12` came in with a z-score of -0.117.

`COc1cc2[nH]c(=O)n(CCCCCC(=O)N3CCN(c4ccccc4)CC3)c(=O)c2cc1OC` gave a z-score of -0.317.

`CC(=O)CC(c1ccc([N+](=O)[O-])cc1)c1c(O)c2ccccc2oc1=O` (stereo unspecified) gave a z-score of -0.233.

As for `CN(C)/C(=N\S(=O)(=O)c1ccccc1)c1ccc([N+](=O)[O-])cc1`, the z-score is 0.0563.

With `Cn1cc(C(=O)c2ccc(F)cc2)cc1-c1nc2ccccc2n1C`, the z-score was found to be 0.176.

Consider `CCOC(=O)C(=O)Nc1nnc(CCc2ccccc2)s1`, for which the z-score was -0.456.

In turn, `COc1ccc(-c2cc(=O)oc3cc(OC(=O)C4CCCCC4)c(Cl)cc23)cc1` displayed a z-score of -0.663.

`CC(C)(C)c1ccc(-c2csc(NNC3=NCCCCC3)n2)cc1`: the z-score is 1.11.

`CCC(=O)Oc1ccc2c(C)cc(=O)oc2c1C(=O)c1ccccc1`: the z-score was -0.282.

On to `COc1ccc(CNc2ncnc(N)n2)cc1`, for which the z-score is -0.153.

`CC1(C)Cc2cccc(OCC(=O)N3CCN(S(=O)(=O)c4ccccc4)CC3)c2O1` returned a z-score of -0.297.

As to `Cc1cnc(C(=O)OCC(=O)Nc2ccc(Oc3ccccc3)cc2)cn1`, the z-score is -1.98.

As for `O=C1c2cccnc2C(=O)N1Cc1cccs1`, the z-score amounted to 0.826.

Take `CC(=O)NC1C(=O)N=C(SCC(=O)NC(C)c2ccccc2)NC1=O` (stereo unspecified): the z-score was 0.154.

In turn, `CC(=O)NS(=O)(=O)c1ccc(NC(=O)c2ccc3c(c2)C(=O)N(CCC(C)C)C3=O)cc1` displayed a z-score of -0.145.

The compound `CN(C)CCCNS(=O)(=O)c1ccc(N2CCC(c3ccc(Cl)cc3)=N2)cc1` displayed a z-score of 2.59.

`CC1CCCN(Cc2nc3c(c(=O)n(C)c(=O)n3C)n2CC(N)=O)C1` (stereo unspecified) returned a z-score of -0.149.

Consider `Nc1ccc(Cc2nc3cc4ccccc4cc3[nH]2)cc1`, for which the z-score was determined as 0.194.

`O=c1[nH][nH]c(-c2ccccc2)c1C=Nc1ccccc1` yielded a z-score of -0.278.

Compound `Nc1ccnn1Cc1cccnc1` returned a z-score of 0.559.

Compound `COc1ccc(C(C)=O)cc1CN1C(=O)C(C)N(c2ccc(C)cc2)C1=O` (stereo unspecified) returned a z-score of -0.0103.

In turn, `CCOC(=O)c1[nH]c(C)c(C(=O)OCC(=O)N2c3ccccc3CC2C)c1C` (stereo unspecified) gave a z-score of -0.182.

For the compound `CCOC(=O)N1CCN(C(=O)CSc2nc3c(c(=O)n2-c2ccccc2OC)SCC3)CC1`, the z-score is active: -3.47.

The compound `N#Cc1cccc(NC(=O)C2SC(=Nc3ccccc3)C(C(=O)N3CCOCC3)=C2N)c1` (stereo unspecified) displayed a z-score of -0.341.

Compound `Cc1cc(NC(=O)Cn2nnc3sc4c(c3c2=O)CCC(C(C)(C)C)C4)no1` (stereo unspecified) registered a z-score of 0.413.

The compound `CC(C)[C@H](NC(=O)c1ccccc1)C(=O)OCC(=O)Nc1ccc(Cl)cc1C(F)(F)F` came in with a z-score of -0.227.

`Cc1ccc(S(=O)(=O)N2CCCC2C(=O)Oc2ccccc2)cc1` (stereo unspecified): the z-score is 0.0214.

With `COc1ccccc1OCc1nnc(SCC(=O)c2cc(Cl)ccc2OC)o1`, the z-score was -0.0271.

Consider `N#C/C(=C\c1cccs1)C(=O)NCc1cccnc1`, for which the z-score was -0.112.

Consider `O=C(Nc1cccc(F)c1)c1ccc(S(=O)(=O)N2CCOCC2)cc1`, for which the z-score is -0.354.

The compound `COc1ccc(-n2c(Cc3cccn3C)nnc2SCC(N)=O)cc1` had a z-score of 0.498.

For `O=C(Oc1cccc(-n2cnnn2)c1)c1ccco1`, the z-score was 0.214.

`CCN1CCN(c2cc(C)c3cc(NC(=O)c4cncc(Br)c4)ccc3n2)CC1` displayed a z-score of -0.912.

As to `CCN(CC)CC(C)OC(=O)COc1ccc(OC)cc1` (stereo unspecified), the z-score is 0.117.

Turning to `Cc1ccc(-n2nnc3c(=O)n(CC(=O)N4CCC(C)CC4)cnc32)cc1`, the z-score is -0.14.

Compound `CC(CN1CCOCC1)OC(=O)c1ccc2c(c1)OCCO2` (stereo unspecified) came in with a z-score of 0.0522.

Consider `Cc1cc(C)c(NC(=O)/C(=C/c2ccco2)c2ccccc2)c(C)c1`, for which the z-score is active: -3.36.

Compound `Cc1cnc(C(=O)Nc2cc(S(=O)(=O)N3CCOCC3)ccc2N2CCN(C)CC2)cn1` came in with a z-score of 0.0173.

Compound `O=C(NN=C1C2CC3CC(C2)CC1C3)c1cc(Cl)ccc1O` displayed a z-score of 0.0729.

`COc1ccc(C)cc1S(=O)(=O)N(C)CC(=O)NC1CCCC1` had a z-score of -0.639.

`CCOC(=O)c1ccc(NC(=S)N(CCCN(CC)CC)Cc2ccco2)cc1`: the z-score was -0.374.

With `NC(=O)CSc1ncnc2c1cnn2Cc1ccccc1`, the z-score was active: 4.34.

On to `COC(=O)c1ccc(CSc2nc3c(cnn3-c3ccc(F)cc3)c(=O)[nH]2)o1`, for which the z-score was -0.635.

Regarding `CCC1CCCCN1CCCNC(=O)c1cn(CC(C)C)c(=O)c2cc(OC)c(OC)cc12` (stereo unspecified), the z-score is -0.536.

`Cc1nn(CC(=O)Nc2ccc3c(c2)nc(CCN2CCCCC2)n3C)c(=O)c2ccccc12`: the z-score is -0.174.

Take `O=C(/C=C/c1ccccc1Cl)N(c1ccccn1)C1CCCCC1`: the z-score was -0.352.

`CCOC(=O)c1[nH]c(=O)c2ccccc2c1O` showed a z-score of -0.0367.

Take `O=C1CC(N2CCN(c3ccc(F)cc3)CC2)C(=O)N1Cc1cccs1` (stereo unspecified): the z-score was -0.198.

Consider `CCSc1nc2ccccc2n1C(=O)Oc1ccccc1`, for which the z-score was -0.129.

Turning to `Cn1c(C(=O)NCCCN2CCCCCC2)cc2c(=O)n(C)c3ccccc3c21`, the z-score is 2.52.

`CCOC(=O)CSc1nc2ccccc2c(=O)n1CCN1CCOCC1` gave a z-score of 0.339.

`C/C(=N\NC(=O)C(=O)Nc1cc(Cl)ccc1Cl)c1ccncc1` gave a z-score of -0.256.

`Cc1occc1C(=O)Nc1ccc(S(=O)(=O)N2CCCC2)cc1` returned a z-score of 0.258.

Regarding `CC1CCCCN1CCNS(=O)(=O)c1ccc2c(c1)oc(=O)n2C` (stereo unspecified), the z-score is -0.735.

As for `COc1cccc(CN2CCN(S(=O)(=O)c3ccc(Br)cc3)CC2)c1`, the z-score is -0.079.

Consider `Cc1cc(C)cc(-n2c(C)cc(C(=O)CSc3nnnn3C)c2C)c1`, for which the z-score is -0.224.

Regarding `CCN(CC)C(=O)c1cc(C(C)(C)C)c(O)c(C(C)(C)C)c1`, the z-score is -0.449.

Turning to `COc1cccc(C2CC(C(F)(F)F)n3ncc(C(=O)NC(C)(C)C)c3N2)c1` (stereo unspecified), the z-score was -0.184.

For the compound `Cn1c(C(=O)OC(C(=O)NC2CCCC2)c2cccnc2)cc2sccc21` (stereo unspecified), the z-score came out at 0.234.

`COc1ccc(OC)c(NC(=O)CCN2CC(C)OC(C)C2)c1` (stereo unspecified) came in with a z-score of 0.46.

`CCOc1cc(/C=N/NC(=O)COc2ccc(C)cc2)ccc1OC(=O)c1cccs1` gave a z-score of -0.0248.

Turning to `CSc1nsc(SCC(=O)N2CCCc3ccccc32)n1`, the z-score was -0.337.

`CN1C(=O)SC(Nc2ccc(F)cc2)C1=O` (stereo unspecified): the z-score is 0.185.

The compound `COc1ccc(S(=O)(=O)N2CCCCC2)cc1NC(=O)c1ccc2ccccc2n1` displayed a z-score of -0.376.

In the case of `O=C1NC(=O)C(=C2CCCCCC2)S1`, the z-score was found to be 0.367.

`Cc1ccc(-c2nn(-c3ccccc3)cc2C2CC(c3cccs3)=NN2C(=O)CCCC(=O)O)cc1` (stereo unspecified) registered a z-score of -0.217.

Turning to `Nc1nnnn1/N=C/c1ccc(O)cc1`, the z-score was -0.442.

In the case of `Cc1ccc(NC(=O)Cn2c(-c3ccc(F)cc3)cnc2SCC(=O)Nc2c(C)cccc2C)cc1`, the z-score is -0.136.

Compound `FC(F)(F)c1nc(-c2ccncc2)ncc1-c1nnnn1-c1ccccc1` returned a z-score of -0.375.

For the compound `CSc1cccc(NC(=O)C(C)NS(=O)(=O)c2ccc(F)cc2)c1` (stereo unspecified), the z-score is -0.405.

In turn, `CCOC(=O)CSc1nc(C)c(C(C)=O)cc1C#N` showed a z-score of 0.245.

For the compound `Cc1[nH]c(=S)c(C#N)c(C)c1C(=O)Nc1ccccc1`, the z-score was -0.121.

As to `Cc1c(/C=N/NC(=O)CNc2ccccc2)c2ccccn2c1C(=O)c1ccccc1`, the z-score is -0.111.

(Values after PubChem BioAssay AID488969 (Vanderbilt High Throughput Screening Facility, 2010).)
